The whole screen tested about 45,000 compounds, of which about 65 (0.1%) were called active. The call rests on the fitted dose curve; in most records, active means well fitted activation curve with a large enough effect; inconclusive means small, poorly fitted or top-dose-only effect; inactive means no such curve, though single readings can be large or run the other way. The list shows a part of the results.
The molecules below were run against Galactocerebrosidase (Homo sapiens) (UniProt P54803) (assay: A Novel Cell-Based Assay to Identify Small Molecules for B -Galactocerebrosidase). Conditions: 145M-Twi-hGALC-G270D cells (Twitcher mouse brain line with human GALC G270D), HMU-beta-Gal fluorescence, 48 h; series mostly up to 57.5 µM; activation: at the top concentration.
UniProt P54803, sequence (P54803 whole entry, looked up): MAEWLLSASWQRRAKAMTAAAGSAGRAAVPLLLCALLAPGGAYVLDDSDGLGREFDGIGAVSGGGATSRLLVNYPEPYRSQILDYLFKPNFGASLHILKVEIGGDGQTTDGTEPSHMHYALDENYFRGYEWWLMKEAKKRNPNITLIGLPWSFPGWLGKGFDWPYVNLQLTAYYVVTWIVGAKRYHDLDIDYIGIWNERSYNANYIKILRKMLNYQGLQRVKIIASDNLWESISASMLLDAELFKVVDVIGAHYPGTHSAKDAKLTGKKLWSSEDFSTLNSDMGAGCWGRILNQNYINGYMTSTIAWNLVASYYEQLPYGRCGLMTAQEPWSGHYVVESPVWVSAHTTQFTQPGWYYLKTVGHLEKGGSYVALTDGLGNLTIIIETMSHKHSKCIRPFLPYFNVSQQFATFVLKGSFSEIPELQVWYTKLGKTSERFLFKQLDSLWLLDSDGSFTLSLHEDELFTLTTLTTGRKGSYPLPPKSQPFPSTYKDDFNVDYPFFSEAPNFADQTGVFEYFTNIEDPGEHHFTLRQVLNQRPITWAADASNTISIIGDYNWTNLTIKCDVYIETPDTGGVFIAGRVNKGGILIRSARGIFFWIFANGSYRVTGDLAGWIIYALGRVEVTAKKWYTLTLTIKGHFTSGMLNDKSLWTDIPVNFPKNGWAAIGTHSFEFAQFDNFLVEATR
Method in brief: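 Live 145M-Twi cells (Twitcher mouse brain-derived, GALC-null) stably expressing human GALC-G270D, with a wild-type GALC line, were compound-treated. Residual GALC activity was then read as fluorescence from 0.1 mM final HMU-β-gal at pH 5.2; higher signal means activation.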
Further: 0% is about no effect; nearly all actives have a fitted effect of over 65% in size.

activation, inactive:
CCc1ccc(-n2nc(CO)c(C(=O)NCc3ccccc3OC)n2)cc1 -7.98%, COc1ccc(CNC(=O)c2cnn(-c3ccc(F)cc3)c2-n2cccc2)cc1 -2.68%, CCCCN(CCCNC(=O)c1c(C)oc2nc[nH]c(=O)c12)Cc1ccccc1 -10.1%, Cc1ccc(NC(=O)Cn2cc(S(=O)(=O)N3CCC(C)CC3)c3ccccc3c2=O)c(Br)c1 2.53%, Cc1cccc(Oc2ccc3c(c2)Oc2ccccc2NC3=O)c1 -28.6%, COc1ccc(-c2nnc(SCC(=O)N(C)Cc3ccccc3)o2)cc1OC 5.41%, CNC(=O)c1c(NC(=O)c2ccc(S(=O)(=O)N3CCCCC3C)cc2)sc2c1CCC2 (configuration not stated) -23.1%, Cc1ccc(Nc2c(-c3cccnc3)nc3ccc(Br)cn23)cc1 -16.6%, Cc1c(Cl)cccc1NC(=O)Cn1cc2c(n1)CCCC2 -20.2%, COc1ccc(C)cc1-n1nnc(C(=O)Nc2cccc(SC)c2)c1C -13.1%, CCOC(=O)c1cc(-c2ccccc2)n(-c2cccc(C(=O)Nc3cccc(C(C)=O)c3)c2)c1C -6.87%, COc1cccc(N2CCN(C(=O)CN3C(=O)COc4ccc(S(=O)(=O)N5CCC(C)CC5)cc43)CC2)c1 -3.11%, Cc1oc2c(c(C)cc3oc(=O)c(CC(=O)NCc4ccccc4)c(C)c32)c1C -13.9%, Cc1cccc(CNC(=O)c2ccc(NC(=O)N3CCSc4ccccc43)cc2)c1 -7.36%, COc1ccc(C(=O)NCC(c2cccnc2)N2CCc3ccccc32)cc1OC (configuration not stated) -18.7%, Cc1ccc(NC(=O)Cn2c(SCc3ccc(F)cc3)nc3cccnc32)cc1F -14.5%, O=C(O)c1ccc(NC(=O)c2cc3ccccc3o2)cc1 -6.11%, O=C(NCCCN1CCN(c2ccccc2F)CC1)c1cc2c(s1)-c1ccccc1OC2 -15.3%, O=C(CSc1nc2c([nH]c3ccccc32)c(=O)n1-c1ccccc1)N1CCCCCC1 -9.76%, CC1CCc2c(sc(NC(=O)COc3ccccc3C(C)(C)C)c2C#N)C1 (configuration not stated) -16.7%, Cc1nc2c3ccccc3nc(NNC(=O)CCC(=O)N3CCN(c4cccc(C(F)(F)F)c4)CC3)n2n1 -9.11%, O=C(Nc1cccc(F)c1)C1CCN(c2nc3ccccc3[nH]2)CC1 -11.5%, Cc1cccc(-n2ccnc2SCC(=O)Nc2ccc3c(c2)OCO3)c1 -12.2%, CCc1cccc(NC(=O)CCS(=O)(=O)c2ccc3nc(C)sc3c2)c1 -5.05%, CCc1ccc(-n2nc(C)c3c(C)cc(=O)n(CC(=O)Nc4ccccc4C(=O)OC)c32)cc1 -14.8%, CSCCC(NS(=O)(=O)c1ccc2c(c1)oc(=O)n2C)C(=O)N1CCN(c2ccc(F)cc2)CC1 (configuration not stated) -20%, CCCCOc1ccc(C(=O)N/C(=C\c2ccc(Br)cc2)C(=O)NC2CCCCC2)cc1 -1.59%, COc1ccc(CNc2ncnc3c2cnn3-c2ccc(C)c(C)c2)cc1 -13%, COc1ccc(CN2C(=O)c3oc4ccccc4c(=O)c3C2c2ccc(O)c(OC)c2)cc1 (configuration not stated) -6.31%, Cc1csc2nc(CCNS(=O)(=O)c3ccc(F)cc3)cn12 -7.1%, CCCCSCCCNC(=O)C1CCC(CNS(=O)(=O)c2c(C)cc(C)cc2C)CC1 (configuration not stated) -3.2%, CCOc1ccc(CNC(=O)c2ccc3c(c2)nc2n3CCC(C)C2)cc1OC (configuration not stated) -11%, COc1cccc(C(=O)NC2CC(=O)N(c3ccc4c(c3)OCCO4)C2)c1OC (configuration not stated) -7.16%, CN1CCc2nc3sc(C(=O)Nc4ccccc4C(F)(F)F)c(N)c3cc2C1 -22.2%, COc1ccccc1Cc1nc2ccccc2nc1SCC(=O)NCc1ccccc1Cl -15.1%, CCOc1ccc(-n2nc3ccc(NC(=O)c4ccc(-c5cccc(Cl)c5)o4)cc3n2)cc1 -19.2%, Cc1ccc2c(=O)c(C(=O)c3cccc(Cl)c3)cn(CC(=O)Nc3ccccc3C(F)(F)F)c2n1 -11%, CC1=C(C(=O)OC2CCCCCC2)C(c2cccc(Cl)c2)CC(=O)N1 (configuration not stated) 1.07%, CCCC1=Nc2cc(C(=O)N3CCC(C)CC3)ccc2Sc2ccc(C)cc21 18.3%, COc1ccccc1C(=O)OCc1cc(=O)n2nc(C(C)C)sc2n1 -4.42%, CC1CCCCN1CCCNC(=O)c1cc(Sc2ccc(Cl)cc2)nc2ccccc12 (configuration not stated) -10.4%, CCOC(=O)CC(=O)CSc1nc2ccccc2c(=O)n1CCc1ccc(S(N)(=O)=O)cc1 -4.35%, COc1ccccc1CNC(=O)c1oc2ccc3c(c2c1C)C(=O)CC(C)(C)O3 -2.02%, COc1ccc(-c2noc(-c3ccc(NCC4CCCO4)c([N+](=O)[O-])c3)n2)cc1OC (configuration not stated) -7.44%, CC(=O)Nc1ccc(NC(=O)CCS(=O)(=O)c2ccc3c(c2)CC(=O)N3C)cc1 4.74%, CC1=Nc2cc(C(=O)NCCc3ccc(Cl)cc3)ccc2Sc2c(C)ccc(C)c21 -16.2%, CCOC(=O)N1CCc2c(sc3c2C(=O)NC(c2ccccc2F)N3)C1 (configuration not stated) -9.22%, CCN1C(=O)C(Cc2nc3ccccc3c(=O)n2-c2ccc(OC)cc2)c2ccccc21 (configuration not stated) -13.8%, COc1ccc(N2CC(NC(=O)COc3ccc4ccccc4c3)CC2=O)cc1OC (configuration not stated) 2.14%, CCOC(=O)C1CCC(CN(Cc2cccc(Br)c2)S(=O)(=O)c2ccc(Cl)cc2)CC1 (configuration not stated) -4.25%, COc1ccc(NC(=O)Cn2cc(S(=O)(=O)Cc3ccc(F)cc3)c3ccccc32)cc1OC -17.8%, COc1ccc(NC(=O)c2cnc(N3CCCCC3)c3ccccc23)cc1Cl -11.9%, CCN(CC)c1ccc(-c2nc(-c3ccco3)no2)cc1[N+](=O)[O-] -28.8%, CCC(C)NC(=O)c1sc2nc(C)c(C(=O)Nc3ccc(C)cc3C)c(-c3ccccc3Cl)c2c1N (configuration not stated) -7.55%, CCCCC1CCC(C(=O)N2CC(=O)Nc3ccc(Cl)cc3C2c2ccc(F)cc2)CC1 (configuration not stated) -24.8%, COc1ccccc1CNc1nccn(-c2ccccc2)c1=O 19.2%, Cc1ccc(-n2c(=O)c3c4c(sc3n(CC(=O)Nc3ccccc3C)c2=O)CCCCC4)cc1C 0.567%, Cc1ccc(CNC(=O)Cn2c(=O)n(Cc3ccc(F)cc3)c(=O)c3sc4ccccc4c32)cc1 -13.6%, Cn1cc(S(=O)(=O)N2CCCCC2)cc1C(=O)Nc1cccc(C#N)c1 -16.1%, Cc1ccc(CCNC(=O)c2ccc3c(=O)n(-c4ccccc4)c(=O)[nH]c3c2)cc1 -15.6%, CCOC(=O)c1cccc2c1N[C@@H](c1ccc(F)cc1)[C@H]1CC=C[C@@H]21 -5.07%, CCCN(C(=O)Cn1ncc2c([nH]c3ccc(C)cc32)c1=O)c1ccccc1C -8.55%, CCC(C)NC(=O)CN1C(=O)COc2ccc(S(=O)(=O)N3CCOCC3)cc21 (configuration not stated) 21.4%, CCOc1ccccc1NC(=O)c1c(NCc2sccc2C)sc2c1CCC(C)C2 (configuration not stated) -13.1%, COc1cccc(N2CC(NC(=O)/C=C\c3ccc(OC)c(OC)c3)CC2=O)c1 (configuration not stated) -16.3%, O=C(Nc1ccc(Cl)cc1)N1CCC(c2ccccc2)C1 (configuration not stated) -6.75%, O=C(CCCCC(=O)Nc1c(I)cc(I)c(C(=O)O)c1I)Nc1c(I)cc(I)c(C(=O)O)c1I -12.9%, Cn1c(Oc2ccc(Cl)cc2)nc2c1c(=O)n(Cc1ccc(F)cc1)c(=O)n2C -13.8%, O=C(NCCc1ccccc1)c1ccc2c(c1)N(Cc1ccc(F)cc1)C(=O)c1ccccc1S2 -11.8%, COc1ccc(C(=O)NC(c2ccc(Cl)cc2)c2cc(Cl)c3cccnc3c2O)cc1 (configuration not stated) -9.88%, CCCCSc1nnc2c(n1)OC(C)N(C(C)=O)c1ccccc1-2 (configuration not stated) -11.2%, CCc1ccccc1NC(=O)CC1Sc2ccc(C(F)(F)F)cc2NC1=O (configuration not stated) 0.186%, COc1ccc(CCNC(=O)Cc2c(C)c3cc4c(C)coc4c(C)c3oc2=O)cc1 4.81%, COc1ccc(CCNC(=O)C2COc3ccccc3C2)cc1OC (configuration not stated) -21.7%, COc1cc(Cl)c(C)cc1NC(=O)c1cnc(N2CCOCC2)c2ccccc12 2.81%, Cc1cc(C)cc(NC(=O)CCC(=O)N2CCSc3ccccc32)c1 -7.97%, Cc1ccc(NC(=O)CN2C(=O)CC(C)Sc3ccccc32)c(C)c1 (configuration not stated) 5.7%, CCOC(=O)c1cccc(NS(=O)(=O)c2cc3c(cc2C)NC(=O)CO3)c1 -17.4%, O=C(c1ccc(Nc2nc3ccccc3n3nnnc23)cc1)N1CCN(c2cccc(C(F)(F)F)c2)CC1 -5.48%, Cc1ccc(C)c(NS(=O)(=O)c2cc3c4c(c2)C(C)C(=O)N4CCC3)c1 (configuration not stated) -10.8%, Cc1cccn2c(=O)c3cc(C(=O)Nc4ccc(Cl)c(Cl)c4)sc3nc12 -12%, Cc1ccc(S(=O)(=O)NCCc2csc(-c3cccc(F)c3)n2)cc1 -14.7%, Cn1c(SCc2ccc(Br)cc2)nc2c([nH]c3ccccc32)c1=O 9.31%, Cc1cc(C)n(C(C)CC(=O)NCc2ccc(Cl)cc2)n1 (configuration not stated) -16.4%, Cc1ccc(OCC(=O)OCc2cc(=O)n3nc(C4CC4)sc3n2)cc1 4.85%, Cc1ccc(NC(=O)C2CCN(c3nnc(C)c4c(C)n(-c5ccccc5)nc34)CC2)cc1Cl -17.5%, CCNC(=O)Cn1nc(C)n2c(cc3c(OC)cccc32)c1=O -2.77%, Cc1c(Cl)cccc1-n1ncc(C(=O)N2CCOCC2)c1C1CCN(C(=O)OC(C)(C)C)CC1 -18.8%, COc1ccc(C(=O)NCCn2cc(SCC(=O)Nc3ccc4c(c3)OCCO4)c3ccccc32)cc1OC 1.01%, CC(C)CC1Nc2ccc(C(=O)NCCCOC(C)C)cc2NC1=O (configuration not stated) 1.43%, CCOC(=O)Cn1c(=O)n(-c2ccccc2OC)c2nc(-c3ccc(C(C)C)cc3)nc(C(N)=O)c21 -13.9%, CCOC(=O)c1c(Oc2ccc(C(C)=O)cc2)nnc(-c2ccccc2)c1-c1ccccc1 -14.2%, CCc1nn2c(=O)cc(COC(=O)C(CC)c3ccccc3)nc2s1 (configuration not stated) -20.6%, CCN(CC)CCCNC(=O)c1ccc2c(Cl)c3c(nc2c1)CCCC3 -9.91%, COCCCNC(=O)C1CCN(c2cc(C)nc3c(-c4ccc(Cl)cc4)c(C)nn23)CC1 -7.06%, CNCC[C@@H](Oc1ccccc1C)c1ccccc1 -3.35%, O=C(CC1N=C2c3ccccc3N=C(SCC(=O)Nc3ccc(F)cc3)N2C1=O)NCc1cccs1 (configuration not stated) -21.7%
